Measured values from paper PMC4336329 (PLoS ONE, 2015).
Among all 310,000 compounds or so, about 2,200 (0.71%) showed an effect of 50% or more. The effect is printed as a negative number. Some of the results follow.

target: human ether-à-go-go-related gene (hERG) potassium channel (human, UniProt Q12809); experiment: primary screen, population patch clamp on CHO cells stably expressing hERG
Sequence (Q12809 whole entry, looked up): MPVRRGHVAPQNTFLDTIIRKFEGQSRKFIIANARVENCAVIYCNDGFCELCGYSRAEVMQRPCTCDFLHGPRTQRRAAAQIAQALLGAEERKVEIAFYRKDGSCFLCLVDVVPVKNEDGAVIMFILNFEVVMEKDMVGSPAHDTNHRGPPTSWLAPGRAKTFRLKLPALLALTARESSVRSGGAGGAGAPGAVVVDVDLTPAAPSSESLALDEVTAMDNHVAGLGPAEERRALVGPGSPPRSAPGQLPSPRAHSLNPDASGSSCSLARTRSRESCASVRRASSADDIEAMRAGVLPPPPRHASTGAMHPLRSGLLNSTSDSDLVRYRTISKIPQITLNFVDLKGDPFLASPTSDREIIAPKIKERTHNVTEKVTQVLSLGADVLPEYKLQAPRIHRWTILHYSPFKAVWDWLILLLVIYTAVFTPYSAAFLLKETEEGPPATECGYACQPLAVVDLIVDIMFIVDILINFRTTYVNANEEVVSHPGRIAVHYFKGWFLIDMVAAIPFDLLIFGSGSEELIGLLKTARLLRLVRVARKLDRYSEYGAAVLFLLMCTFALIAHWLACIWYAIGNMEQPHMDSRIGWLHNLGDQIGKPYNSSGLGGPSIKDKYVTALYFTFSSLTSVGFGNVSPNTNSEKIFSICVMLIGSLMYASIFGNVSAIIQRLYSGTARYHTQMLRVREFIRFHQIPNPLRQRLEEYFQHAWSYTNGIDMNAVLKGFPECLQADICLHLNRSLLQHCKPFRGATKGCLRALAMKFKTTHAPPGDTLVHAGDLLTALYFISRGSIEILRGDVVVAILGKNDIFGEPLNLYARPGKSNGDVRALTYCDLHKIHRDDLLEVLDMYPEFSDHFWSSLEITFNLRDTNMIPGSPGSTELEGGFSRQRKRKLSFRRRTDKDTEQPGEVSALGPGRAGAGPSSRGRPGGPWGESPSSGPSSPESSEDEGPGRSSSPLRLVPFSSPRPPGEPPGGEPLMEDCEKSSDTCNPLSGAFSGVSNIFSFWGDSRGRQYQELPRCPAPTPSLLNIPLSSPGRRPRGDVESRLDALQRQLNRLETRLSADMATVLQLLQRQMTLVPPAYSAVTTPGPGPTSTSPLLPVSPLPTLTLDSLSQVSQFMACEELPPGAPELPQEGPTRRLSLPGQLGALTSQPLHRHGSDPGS

SMILES	hERG current change (%, negative = inhibition) at 1uM [%]
O=C(O)c1[nH]c2ccc(Br)cc2c1CCN1C(=O)c2cccc([N+](=O)[O-])c2C1=O	10.7
Cc1ccc(N2C(=N)/C(=C3/Nc4ccccc4S3)C(c3ccccc3)C2=O)cc1 (stereo not shown)	24.7
O=C(CSCC(=O)Nc1cccc([N+](=O)[O-])c1)Nc1ccccc1	13.1
CNc1nc2c(C)cccn2c(=O)c1C=NCc1ccccc1	20
COc1ccc(N2CCOCC2)c(NC(=O)c2ccc3c(c2)OCO3)c1	12.4
CC1(C)CC(=O)C2=C(C1)OC(N)=C(C#N)C2c1cc2c(cc1[N+](=O)[O-])OCO2 (stereo not shown)	5.63
CC1CCN(c2ccc3nnc(CCC(=O)Nc4cc(F)ccc4F)n3n2)CC1	3.13
COc1cc2c(cc1OC)C(c1ccccc1)N(C(=O)c1ccccc1)CC2 (stereo not shown)	11.4
COc1ccc(OC)c(NC(=O)C(=O)NCc2ccncc2)c1	-8.5
O=S(=O)(N1CCCCC1)N1CCN(c2ccc(F)cc2)CC1	-0.452
COc1ccccc1CN1CCNC(=O)C1CC(=O)NCCOc1cccnc1 (stereo not shown)	7.59
Cc1nn(Cc2c(Cl)cccc2Cl)c(C)c1NC(=O)c1cn(-c2ccccc2)nc1-c1ccccc1	6.15
Nc1c(C(=O)c2ccccc2)sc2nsc(SCCN3CCCC3)c12	10
CN(C)c1ccc(CNc2ccc3c(c2)ncn3C(C)(C)C)cc1	10.3
COc1ccc(NC(=O)CCCn2nc(C)c3c(C)n(-c4ccccc4)nc3c2=O)cc1OC	12.8
CC1CC(C)CN(CCCNC(=O)c2c(O)nc3ccccn3c2=O)C1 (stereo not shown)	13.8
COC(=O)c1c(C(=O)NCc2ccccc2)ncn1CC(O)COc1ccccc1 (stereo not shown)	5.97
COc1ccc(CCNC(=O)Cn2nnc(-c3ccc(N4CCOCC4)cc3)n2)cc1OC	3.01
COCCNC(=O)C(c1ccc(C)o1)N(Cc1ccc(F)cc1)C(=O)Cn1nnc2ccccc21 (stereo not shown)	1.57
COc1ccc(CCNC(=O)Cc2cccs2)cc1OC	25.5
COc1ccc(C(CCN2CCCC(C)C2)c2c(OC)cc(OC)c3c2OC(=O)CC3c2cc(OC)c(OC)c(OC)c2)cc1 (stereo not shown)	11.9
Cc1ccc(OCC(=O)N2CCCC(N3CCN(c4ccc(F)cc4)CC3)C2)cc1 (stereo not shown)	-90.2

SMILES	hERG current change (%, negative = inhibition) at 1uM [%]
Cc1ccc(-c2nnc(CCC(=O)N(C)Cc3nccs3)o2)s1	5.2
CCCN(CC(=O)Nc1ccc(F)c(F)c1F)C(=O)c1ccc(N2CCCC2=O)cc1	12.5
CCCCn1c(=O)c(CCC(=O)OCC(=O)Nc2cccc3ccccc23)nc2ccccc21	17.2
O=C(Nc1cnc2sccn2c1=O)c1ccc(Cl)cc1Cl	16.9
CC(C)c1c(C(=O)N/N=C/c2ccncc2)nnn1-c1nonc1N	-5.28
O=C(C[n+]1ccccc1)N/N=C/c1ccccc1F.[Cl-]	8.59
Cc1nnc(SCC(=O)N2CCN(c3ccccc3)CC2)n(N)c1=O	10.7
CCOCCn1c(CN(Cc2ccccc2)Cc2ccccc2)nc2c1c(=O)n(C)c(=O)n2C	4.46
Cc1nc2nc(C)c(CCC(=O)NCCC3=CCCCC3)c(C)n2n1	11.6
O=C(Oc1ccccc1N1C(=O)C2CCCCC2C1=O)c1ccccc1 (stereo not shown)	23.6
O=C(NCC1CCCO1)c1cc2ccccc2nc1Cl (stereo not shown)	12.5
CN1CCN(Cc2cccc3ncccc23)CC1CCO (stereo not shown)	13.5
Cc1cccc(-n2c(-c3csc(C)c3)n[nH]c2=S)c1	11.8
Cc1cc(NC(=O)C2C3C(=O)N(Cc4ccc(Cl)cc4)C(C(=O)NC4CCCCC4)C34C=CC2(C)O4)no1 (stereo not shown)	15.3
C=C(C)CSc1nnc(-c2cccc(S(=O)(=O)N(C)C)c2)n1-c1cc(OC)ccc1OC	5.1
CCCn1c(SCC(=O)Nc2ccc(S(=O)(=O)N(C)C)cc2)n[nH]c1=O	7.4
Cc1cccc(C)c1OCC(=O)NC1CC1	14
CCOC(=O)c1ccc(OS(=O)(=O)c2ccccc2)c(OC)c1	11.4
COC(=O)Cc1ccc(NC(=S)N2CCCCC2C)cc1 (stereo not shown)	0.705
CC(C(=O)N1CCOCCOCCOCC1)N1C(=O)c2ccccc2C1=O (stereo not shown)	10.9
CN(CC(=O)Nc1ccccc1C(F)(F)F)C(=O)C1CC1	14.5
O=C(COC(=O)/C=C/c1ccc(F)cc1)Nc1ccc(Cl)cn1	19.6

SMILES	hERG current change (%, negative = inhibition) at 1uM [%]
O=C(NC12CC3CC(CC(C3)C1)C2)c1ccc([N+](=O)[O-])cc1	11.1
COc1cc(C(C)=O)ccc1OC(=O)N(C)c1ccccc1	6.73
COCCCNC(=O)CCC(=O)Nc1ccc2nc(N3CCOCC3)cc(C)c2c1	7.15
CC(=O)Nc1ccc(NC(=O)COC(=O)CCc2nc3ccccc3s2)cc1	7.01
Cc1cc(C)c(S(=O)(=O)NCC2CCC(C(=O)N3CCC4(CC3)OCCO4)CC2)c(C)c1 (stereo not shown)	-8.34
Nc1nc(CN2CCN(c3ccccc3)CC2)nc(Nc2ccc(Cl)cc2)n1	-44.8
Nc1cc(N)nc(SCC(=O)NC(=O)NC2CCCC2)n1	6.37
Cc1nnc(SCC(=O)N2CCc3ccccc32)n1-c1ccccc1	21
O=S(=O)(NCC(c1cccnc1)N1CCN(c2ccc(F)cc2)CC1)c1cccs1 (stereo not shown)	-22.3
CC(C)(CNC(=O)c1cc(-c2ccc(Cl)s2)nc2ccccc12)N1CCOCC1	-11.6
CCC(C)(C)NC(=O)C(c1ccccc1)N(C(=O)c1csnn1)C1CC1 (stereo not shown)	13.5
COCCNC(=S)N(CCc1c(C)[nH]c2ccc(Cl)cc12)Cc1cccnc1	-3.35
CCOc1ccc(CCNC(=O)CS(=O)(=O)Cc2nc(-c3ccc(OC)cc3)oc2C)cc1	-0.117
CC(=O)Nc1ccc(S(=O)(=O)/N=C2\SCCN2S(=O)(=O)c2ccc(NC(C)=O)cc2)cc1	8.99
COc1ccc(Nc2nnc(-c3ccccc3)c3ccccc23)cc1C(=O)N1CCCCC1	-14.8
Cc1ccc(/C=C/S(=O)(=O)NCc2ccc(F)cc2)cc1	16
COc1ccc(N2CCN(c3ncnc4c3cnn4-c3ccc(C)cc3C)CC2)cc1	13.6
C[C@H](NC(=O)Cc1cccc2ccccc12)C(=O)N1CCCN(C)CC1	10
CCOC(=O)C1CCN(C(=O)C2CCN(c3ncnc4c3nc3n4CCCCC3)CC2)CC1	16
COC(=O)c1ccc(COc2ccccc2/C=C(\C#N)C(=O)Nc2c(C)cccc2C)cc1	10.3
O=C1S/C(=C\c2cccs2)C(=O)N1c1ccc(O)cc1	16.1
CCOc1cc(C2C(C#N)=C(N)OC3CCCC(=O)C32)ccc1OCCN1CCOCC1 (stereo not shown)	8.53

SMILES	hERG current change (%, negative = inhibition) at 1uM [%]
CC(C)CNC(=S)Nc1ccccc1F	11.4
O=C(Cn1c(CO)nc2ccccc21)Nc1ccccc1Cl	3.41
CC1CN(CCOc2ccccc2-c2ccccc2)CC(C)O1.O=C(O)C(=O)O (stereo not shown)	6.68
Cc1cnc(C(=O)N2CCCC(C(=O)c3cccc(OC(C)C)c3)C2)cn1 (stereo not shown)	3.22
O=C(c1cccc2ccccc12)N1CCN(c2ccc([N+](=O)[O-])c(NCc3ccco3)c2)CC1	14.5
Cc1ccc(C(=O)Oc2cc(C)n(C)c(=O)c2)cc1	5.86
O=C(COC(=O)c1c[nH]c2ccccc12)Nc1ccc(F)cc1	-1.51
CC1=CCC2C(=O)N(C(C)c3ccccc3)C(=O)C2C1 (stereo not shown)	7.02
COc1ccc(C(=S)N2CCC(C(N)=O)CC2)cc1Br	13.2
COC(=O)c1cc2oc(C)cc2n1CC(=O)N(C)c1ccccc1	16.7
O=C(Nc1nc(-c2cccc([N+](=O)[O-])c2)cs1)c1cccc([N+](=O)[O-])c1C(=O)O	12.5
CN(C)S(=O)(=O)c1cccc(C(=O)Nc2cccnc2)c1	4.03
O=C(N=C1c2ccccc2CN1c1ccc(F)cc1)c1ccc(Cl)nc1	3.7
COc1ccc(/C=N/NC(=O)CCc2nc3ccccc3[nH]2)cc1	4.33
CCOCCCNC(=O)c1ccc(OC2CCN(C(C)=O)CC2)c(OC)c1	16.4
O=C1Nc2c(c(=O)[nH]c(=O)n2-c2ccccc2)C(C(F)(F)F)(C(F)(F)F)N1	-1.46
CCOc1ccc(N2CC(C(=O)N3CCCCC3)CC2=O)cc1 (stereo not shown)	19.4
c1ccc(-c2ccc(-c3nc(-c4ccncc4)no3)cc2)cc1	9.01
Cc1cccc(CN2C(=O)c3ccccc3Sc3ccc(C(=O)NCCN4CCOCC4)cc32)c1	1.75
